Experimental data from the supplement of paper PMC8728848.
The list shows a part of the results.

Legend:
Test in all cases: glycan array binding signal (z-score within array); higher = stronger binding
Details in all cases: glycan notation: IUPAC condensed, linker removed
[1] = target: Man(a1-2)Man(a1-3)[Man(a1-2)Man(a1-6)]Man(a1-6)[Man(a1-2)Man(a1-2)Man(a1-3)]Man
Outline: (§1)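 Glycan array data came from 3228 arrays in the Consortium for Functional Glycomics database, and only arrays with an available protein sequence were kept. Glycan names were put into IUPAC-condensed notation, and columns mapping to the same glycan were averaged. The binding signal is a within-array Z-score, averaged across arrays of one protein sequence run at different concentrations or buffers and across linkers. A negative Z-score can be read as non-binding.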

[2] = target: Man(a1-2)Man(a1-3)[Man(a1-2)Man(a1-6)]Man(a1-6)[Man(a1-2)Man(a1-2)Man(a1-3)]Man(b1-4)GlcNAc(b1-4)GlcNAc
Outline: as §1

[3] = target: Man(a1-2)Man(a1-3)[Man(a1-6)]Man(a1-6)[Man(a1-2)Man(a1-3)]Man(b1-4)GlcNAc(b1-4)GlcNAc
Outline: as §1

[4] = target: Man(a1-2)Man(a1-6)[Man(a1-3)]Man(a1-6)[Man(a1-2)Man(a1-2)Man(a1-3)]Man
Outline: as §1

[5] = target: Man(a1-2)Man(a1-6)[Man(a1-3)]Man(a1-6)[Man(a1-2)Man(a1-2)Man(a1-3)]Man(b1-4)GlcNAc(b1-4)GlcNAc
Outline: as §1

[6] = target: Man(a1-3)[Man(a1-6)]Man
Outline: as §1

[7] = target: Man(a1-3)[Man(a1-6)]Man(a1-6)[Man(a1-2)Man(a1-3)]Man(b1-4)GlcNAc(b1-4)GlcNAc
Outline: as §1

[8] = target: Man(a1-3)[Man(a1-6)]Man(a1-6)[Man(a1-3)]Man
Outline: as §1

[9] = target: Man(a1-3)[Man(a1-6)]Man(a1-6)[Man(a1-3)]Man(b1-4)GlcNAc(b1-4)GlcNAc
Outline: as §1

[10] = target: Man(a1-3)[Man(a1-6)]Man(b1-4)GlcNAc(b1-4)GlcNAc
Outline: as §1

[11] = target: Man(a1-3)[Man(a1-6)]Man(b1-4)GlcNAc(b1-4)[Fuc(a1-6)]GlcNAc
Outline: as §1

[12] = target: Man(a1-6)Man
Outline: as §1

[13] = target: Man(b1-4)GlcNAc
Outline: as §1

[14] = target: MurNAc(b1-4)GlcNAc
Outline: as §1

[15] = target: Neu5Ac(a2-3)Gal
Outline: as §1

[16] = target: Neu5Ac(a2-3)Gal(b1-3)GalNAc
Outline: as §1

[17] = target: Neu5Ac(a2-3)Gal(b1-3)GalNAc(b1-3)Gal(a1-4)Gal(b1-4)Glc
Outline: as §1

[18] = target: Neu5Ac(a2-3)Gal(b1-3)GalNAc(b1-4)[Neu5Ac(a2-3)]Gal(b1-4)Glc
Outline: as §1

[19] = target: Neu5Ac(a2-3)Gal(b1-3)GalNAc(b1-4)[Neu5Ac(a2-8)Neu5Ac(a2-3)]Gal(b1-4)Glc
Outline: as §1

[20] = target: Neu5Ac(a2-3)Gal(b1-3)GalNAc6S
Outline: as §1

[21] = target: Neu5Ac(a2-3)Gal(b1-3)GlcNAc
Outline: as §1

[22] = target: Neu5Ac(a2-3)Gal(b1-3)GlcNAc(b1-2)Man
Outline: as §1

[23] = target: Neu5Ac(a2-3)Gal(b1-3)GlcNAc(b1-2)Man(a1-3)[GlcNAc(b1-4)][Neu5Ac(a2-3)Gal(b1-3)GlcNAc(b1-2)Man(a1-6)]Man(b1-4)GlcNAc(b1-4)GlcNAc
Outline: as §1

[24] = target: Neu5Ac(a2-3)Gal(b1-3)GlcNAc(b1-2)Man(a1-3)[Neu5Ac(a2-3)Gal(b1-3)GlcNAc(b1-2)Man(a1-6)]Man(b1-4)GlcNAc(b1-4)GlcNAc
Outline: as §1

[25] = target: Neu5Ac(a2-3)Gal(b1-3)GlcNAc(b1-3)Gal(b1-3)GlcNAc
Outline: as §1

[26] = target: Neu5Ac(a2-3)Gal(b1-3)GlcNAc(b1-3)Gal(b1-4)GlcNAc
Outline: as §1

[27] = target: Neu5Ac(a2-3)Gal(b1-3)GlcNAc(b1-3)GalNAc
Outline: as §1

[28] = target: Neu5Ac(a2-3)Gal(b1-3)GlcNAc(b1-4)Gal(b1-4)Glc
Outline: as §1

[29] = target: Neu5Ac(a2-3)Gal(b1-3)GlcNAc(b1-6)GalNAc
Outline: as §1

[30] = target: Neu5Ac(a2-3)Gal(b1-3)GlcNAc6S
Outline: as §1

[31] = target: Neu5Ac(a2-3)Gal(b1-3)[Fuc(a1-4)]GlcNAc
Outline: as §1

[32] = target: Neu5Ac(a2-3)Gal(b1-3)[Fuc(a1-4)]GlcNAc(b1-3)Gal(b1-3)[Fuc(a1-4)]GlcNAc
Outline: as §1

[33] = target: Neu5Ac(a2-3)Gal(b1-3)[Fuc(a1-4)]GlcNAc(b1-3)Gal(b1-4)[Fuc(a1-3)]GlcNAc
Outline: as §1

[34] = target: Neu5Ac(a2-3)Gal(b1-3)[GlcNAc(b1-6)]GalNAc
Outline: as §1

[35] = target: Neu5Ac(a2-3)Gal(b1-3)[Neu5Ac(a2-6)]GalNAc
Outline: as §1

[36] = target: Neu5Ac(a2-3)Gal(b1-3)[Neu5Ac(a2-6)]GlcNAc(b1-3)[Fuc(a1-3)[Gal(b1-4)]GlcNAc(b1-6)]Gal(b1-4)Glc
Outline: as §1

[37] = target: Neu5Ac(a2-3)Gal(b1-3)]Neu5Ac(a2-3)Gal(b1-4)]GlcNAc
Outline: as §1

[38] = target: Neu5Ac(a2-3)Gal(b1-4)Glc
Outline: as §1

[39] = target: Neu5Ac(a2-3)Gal(b1-4)GlcNAc
Outline: as §1

[40] = target: Neu5Ac(a2-3)Gal(b1-4)GlcNAc(b1-2)Man
Outline: as §1

[41] = target: Neu5Ac(a2-3)Gal(b1-4)GlcNAc(b1-2)Man(a1-3)[GlcNAc(b1-4)][Neu5Ac(a2-3)Gal(b1-4)GlcNAc(b1-2)Man(a1-6)]Man(b1-4)GlcNAc(b1-4)GlcNAc
Outline: as §1

[42] = target: Neu5Ac(a2-3)Gal(b1-4)GlcNAc(b1-2)Man(a1-3)[Neu5Ac(a2-3)Gal(b1-4)GlcNAc(b1-2)Man(a1-6)]Man(b1-4)GlcNAc(b1-4)GlcNAc
Outline: as §1

[43] = target: Neu5Ac(a2-3)Gal(b1-4)GlcNAc(b1-2)Man(a1-3)[Neu5Ac(a2-3)Gal(b1-4)GlcNAc(b1-2)Man(a1-6)]Man(b1-4)GlcNAc(b1-4)[Fuc(a1-6)]GlcNAc
Outline: as §1

[44] = target: Neu5Ac(a2-3)Gal(b1-4)GlcNAc(b1-2)Man(a1-3)[Neu5Ac(a2-6)Gal(b1-4)GlcNAc(b1-2)Man(a1-6)]Man(b1-4)GlcNAc(b1-4)GlcNAc
Outline: as §1

[45] = target: Neu5Ac(a2-3)Gal(b1-4)GlcNAc(b1-2)[Neu5Ac(a2-3)Gal(b1-4)GlcNAc(b1-4)]Man(a1-3)[GlcNAc(b1-4)][Neu5Ac(a2-3)Gal(b1-4)GlcNAc(b1-2)[Neu5Ac(a2-3)Gal(b1-4)GlcNAc(b1-6)]Man(a1-6)]Man(b1-4)GlcNAc(b1-4)GlcNAc
Outline: as §1

B1: EULS2 M4 (Oryza sativa) (protein)
chain: MVYCRANPNYAMTARNGAVVLAPANPKDEYQHWIKDMRWSTSIKDEEGYPAFALVNKATGQAIKHSLGQSHPVRLVPYNPEVMDESVLWTESRDVGNGFRCIRMVNNIYLNFDAFHGDKYHGGVRDGTDIVLWKWCEGDSLRWKIQPYYILEQKLISEEDLNSAVDHHHHHH
[1]
  glycan array binding signal (z-score): -0.397
[2]
  glycan array binding signal (z-score): -0.4
[3]
  glycan array binding signal (z-score): -0.525
[4]
  glycan array binding signal (z-score): 0.403
[5]
  glycan array binding signal (z-score): -0.414
[6]
  glycan array binding signal (z-score): -0.459
[7]
  glycan array binding signal (z-score): -0.395
[8]
  glycan array binding signal (z-score): -0.216
[9]
  glycan array binding signal (z-score): -0.494
[10]
  glycan array binding signal (z-score): 0.007
[11]
  glycan array binding signal (z-score): 0.181
[12]
  glycan array binding signal (z-score): 0.713
[13]
  glycan array binding signal (z-score): -0.475
[14]
  glycan array binding signal (z-score): -0.576
[15]
  glycan array binding signal (z-score): 0.18
[16]
  glycan array binding signal (z-score): -0.341
[17]
  glycan array binding signal (z-score): -0.448
[18]
  glycan array binding signal (z-score): -0.469
[19]
  glycan array binding signal (z-score): -0.527
[20]
  glycan array binding signal (z-score): 0.008
[21]
  glycan array binding signal (z-score): -0.043
[22]
  glycan array binding signal (z-score): -0.472
[23]
  glycan array binding signal (z-score): -0.281
[24]
  glycan array binding signal (z-score): -0.345
[25]
  glycan array binding signal (z-score): -0.262
[26]
  glycan array binding signal (z-score): -0.06
[27]
  glycan array binding signal (z-score): -0.188
[28]
  glycan array binding signal (z-score): -0.751
[29]
  glycan array binding signal (z-score): 0.11
[30]
  glycan array binding signal (z-score): 0.416
[31]
  glycan array binding signal (z-score): -0.48
[32]
  glycan array binding signal (z-score): -0.27
[33]
  glycan array binding signal (z-score): -0.011
[34]
  glycan array binding signal (z-score): -0.538
[35]
  glycan array binding signal (z-score): 0.3
[36]
  glycan array binding signal (z-score): -0.071
[37]
  glycan array binding signal (z-score): -0.232
[38]
  glycan array binding signal (z-score): -0.331
[39]
  glycan array binding signal (z-score): 0.455
[40]
  glycan array binding signal (z-score): 7.63
[41]
  glycan array binding signal (z-score): -0.468
[42]
  glycan array binding signal (z-score): -0.561
[43]
  glycan array binding signal (z-score): 2.46
[44]
  glycan array binding signal (z-score): -0.426
[45]
  glycan array binding signal (z-score): -0.145
